Whole data set: some 110,000 compounds, median “z-score” near -0.1, cut for the highest 2% near 2. The list shows a part of the results. Activity calls are given as the source filed them.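 The calls were made as follows: active = z-score in the third read window above 3 or below -3; inactive = the rest.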

For this test, the target named is Metabotropic glutamate receptor 8 (Rattus norvegicus) (UniProt P70579). Nature of the test: mGluR8 Gi/Go-coupled signaling modulation – cell-based, rat, thallium flux, HTS, primary screen (AID 488969). The conditions noted are these: HEK293 rat mGluR8, GIRK (G protein-gated inwardly rectifying potassium channel) thallium flux, FluoZin2; at 10 µM; stronger effect = higher value; submaximal glutamate (EC20) added with thallium.
UniProt P70579, sequence (P70579 whole entry, looked up): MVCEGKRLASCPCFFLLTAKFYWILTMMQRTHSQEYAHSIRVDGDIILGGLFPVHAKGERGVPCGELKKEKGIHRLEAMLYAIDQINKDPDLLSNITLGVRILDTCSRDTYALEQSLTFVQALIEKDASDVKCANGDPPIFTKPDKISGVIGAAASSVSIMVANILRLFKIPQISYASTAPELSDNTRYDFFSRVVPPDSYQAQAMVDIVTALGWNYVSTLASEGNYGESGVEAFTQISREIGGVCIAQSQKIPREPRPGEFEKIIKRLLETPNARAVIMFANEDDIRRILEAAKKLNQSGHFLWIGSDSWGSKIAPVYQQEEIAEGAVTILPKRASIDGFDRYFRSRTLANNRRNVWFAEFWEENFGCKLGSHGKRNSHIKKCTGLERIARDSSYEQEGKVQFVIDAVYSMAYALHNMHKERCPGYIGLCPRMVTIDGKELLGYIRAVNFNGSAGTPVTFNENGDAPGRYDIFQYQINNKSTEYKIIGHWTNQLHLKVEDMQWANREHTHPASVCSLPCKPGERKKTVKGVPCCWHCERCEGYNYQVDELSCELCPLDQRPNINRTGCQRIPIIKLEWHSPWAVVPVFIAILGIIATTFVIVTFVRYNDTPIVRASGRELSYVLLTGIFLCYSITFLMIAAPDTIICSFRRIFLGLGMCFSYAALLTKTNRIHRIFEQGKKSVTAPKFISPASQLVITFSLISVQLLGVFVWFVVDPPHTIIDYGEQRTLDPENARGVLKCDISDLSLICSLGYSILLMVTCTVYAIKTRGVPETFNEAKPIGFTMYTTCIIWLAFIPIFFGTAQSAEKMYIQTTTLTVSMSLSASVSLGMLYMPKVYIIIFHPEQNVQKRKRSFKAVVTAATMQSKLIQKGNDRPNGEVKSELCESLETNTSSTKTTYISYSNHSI
`CCC(C)NC(=O)c1ccccc1NS(=O)(=O)c1ccc(OC)c(OC)c1` (configuration not stated) came in with a z-score of 0.161.
`C#CCOc1nc(OCC#C)nc(OCC#C)n1` had a z-score of 0.0178.
As for `CCOC(=O)Cn1cnc2c(cnn2-c2ccc(Cl)cc2)c1=O`, the figure is 0.187.
The figure for `O=C(COC(=O)c1ccccc1Nc1cccc(C(F)(F)F)c1)NCc1ccco1` is -0.0996; for `Cc1ccc(S(=O)(=O)N(CC(=O)O)Cc2ccccc2F)cc1` it is -0.0921.
The figure for `COC(=O)C1=C(C(C)=O)C(c2ccc(C)cc2)n2nnnc2N1` (configuration not stated) is 1.36.
The molecule `Cc1ccc(N2C(=O)NC(NC(=O)C3CC3)(C(F)(F)F)C2=O)cc1` (configuration not stated) showed a z-score of -0.133.
The figure for `CNC(=S)N1N=C(c2ccc(C)cc2)CC1c1ccc(OC)c(OC)c1` (configuration not stated) is -0.191.
Take `CCCC(C)C(=O)Nc1nc(C)c(-c2csc(Nc3cc(OC)ccc3OC)n2)s1` (configuration not stated): the z-score is 0.302.
Consider `CCOC(=O)CSc1nnc([C@@H](NC(=O)OC(C)(C)C)C(C)C)o1`, for which the z-score was -0.158.
Turning to `COc1cccc(NC(=S)N2CCCC2)c1`, the z-score is -0.239.
As for `CCc1cccc(CC)c1NC(=O)COC(=O)c1ccccc1-c1nc2ccccc2s1`, the figure is -0.194; as for `CCSc1nnnn1-c1ccccc1`, -0.0524; as for `CCCc1nnc(NC(=O)CCC(=O)Nc2ccc(F)cc2)s1`, -1.03.
As for `CCOC(=O)c1ccccc1NC(=O)Nc1ccc(OC)c(OC)c1`, the figure is 0.154.
As for `Cc1sc(NC(=O)CSc2nnc(C(C)C)n2C)c(C#N)c1C`, the figure is 1.76; as for `C#CC[N+](CC)(CC)CC#Cc1cccc(Cl)c1`, -0.0419; as for `CC(=O)NC1C(=O)Nc2c1cccc2C(F)(F)F` (configuration not stated), -0.302.
`O=C(N/N=C/c1cccs1)c1cccc(NC(=O)c2ccccc2Cl)c1` showed a z-score of -0.218.
In turn, `CCC(C(=O)NC1CCCCC1)N(CC1CCCO1)C(=O)CNS(=O)(=O)c1ccc(OC)cc1` (configuration not stated) came in with a z-score of 0.0163.
The figure for `Cc1csc(-c2cnn(-c3ccccc3)c2NC(=O)c2cccc(C(F)(F)F)c2)n1` is -0.637.
The figure for `CCN(CC(=O)O)S(=O)(=O)c1cc(Cl)ccc1Cl` is -0.13; for `COc1ccc(C(=O)NNc2ccccc2)cc1OC` it is -0.385.
In the case of `O=C(CN1C(=O)C2CC=C(Cl)CC2C1=O)Nc1ccc(C(=O)O)cc1` (configuration not stated), the z-score was -0.407.
As for `COCCNS(=O)(=O)c1cccc2cccnc12`, the figure is -0.403.
The figure for `COc1cccc(NC(=O)c2ccccc2NS(C)(=O)=O)c1` is 0.815; for `COc1cc(CNC2CCC(C)C2)cc(OC)c1` (configuration not stated) it is 0.0941.
For the molecule `COC(=O)c1c(NC(=O)CC2SC(N)=NC2=O)sc2c1CCCC2` (configuration not stated), the z-score is -0.275.
On to `CNc1nc(C)c(C(=O)OCc2ccccc2)s1`, for which the z-score is -0.438.
The figure for `O=C(NNC(=S)NCc1ccccc1)c1ccc2c(c1)OCO2` is -0.344; for `O=C(NC1CCCC1)C(c1ccncc1)N(Cc1ccccc1)C(=O)c1ccc(-c2ccccc2)[nH]1` (configuration not stated) it is 0.0464.
Turning to `CCOC(=O)c1sc(NC(=O)CN2C(=O)c3cccc4cccc(c34)C2=O)nc1C`, the z-score is -0.0317.
As for `Cc1ccc(C(=O)NCCSCc2ccccc2)cc1[N+](=O)[O-]`, the figure is -0.369; as for `CCOC(=O)Cc1csc(NC(=O)C2CCCN(S(=O)(=O)c3cnc[nH]3)C2)n1` (configuration not stated), -0.322.
As for `C/C(=N/N1CCN(c2ccccn2)CC1)c1cccc([N+](=O)[O-])c1`, the figure is -0.367; as for `COC(=O)c1[nH]c2ccc(F)cc2c1NC(=O)CCN1CCN(Cc2ccc3c(c2)OCO3)CC1`, -0.752; as for `CCOc1ccc(CCNC(=O)CN2CCN(Cc3ccccc3F)C2=O)cc1OCC`, 0.219.
The figure for `COc1ccc(C2N(c3cc(Cl)ccc3OC)C(=O)C3CCCN32)c(OC)c1` (configuration not stated) is -0.695; for `CCOC(=O)N1CCN(C(=O)CCc2ccc(S(=O)(=O)NCCc3ccccc3)cc2)CC1` it is -0.186; for `COc1cccc(C2C3=C(N=c4s/c(=C\c5ccc(O)cc5)c(=O)n42)c2ccccc2CC3)c1OC` (configuration not stated) it is 0.187.
Regarding `CCCNC(=O)CN(C)S(=O)(=O)c1ccc(F)cc1`, the z-score turned out to be 0.0374.
The figure for `CCn1c(SCc2ccc(C#N)cc2)nnc1-c1cccc(Cl)c1` is -0.177; for `CCc1cccc(CC)c1NC(=O)COC(=O)/C(C#N)=C/c1ccc(OC)cc1` it is -0.205; for `Cc1ccc(C(=O)c2c(C)oc3c2C(=O)C(=O)c2ccccc2-3)cc1` it is -0.95.
Regarding `CCOC(=O)N1CCN(c2c(N3CCN(c4cccc(C)c4C)CC3)c(=O)c2=O)CC1`, the z-score turned out to be 0.0202.
Turning to `COc1ccc(OCc2nnc3n2N=C(c2ccc(Br)cc2)CS3)cc1`, the z-score was found to be 0.109.
As for `COCC(=O)NCCSc1c(C)[nH]c2ccccc12`, the figure is 0.0766; as for `O=c1oc(-c2ccccc2)nc2c1cnn2-c1ccccc1`, -0.85.
Regarding `CCOC(=O)N1CCN(C(=O)C2CCCN(S(=O)(=O)c3cc(C)ccc3OC)C2)CC1` (configuration not stated), the z-score is -0.0824.
Turning to `Nc1nc(NCc2cccs2)nn1-c1ccccc1`, the z-score was 1.01.
With `C/C(=N/NC(=O)CN1CCN(S(=O)(=O)c2ccc(Br)cc2)CC1)c1cccnc1`, the z-score is -0.0379.
As for `Cc1cc(C2=NNC(=NC3CC3)SC2)c(C)n1Cc1ccco1`, the figure is 1.4.
In turn, `CCOC(=O)c1c(C)oc2ccc(OCC(=O)N(CC)CC)cc12` returned a z-score of 0.0771.
The figure for `CC(C)c1ccccc1NC(=O)CCCC(=O)O` is -0.205; for `Cc1nn2c3c(cnc2c1-c1ccccc1)C(=O)CC(c1ccccc1)C3` (configuration not stated) it is 0.106; for `Cc1cccc(NC(=O)Nc2ccc(Oc3c(F)c(F)c(F)c(F)c3F)cc2)c1` it is 0.606.
On to `CS(=O)(=O)N(CC(=O)Nc1ccccc1Sc1ccccc1)c1cccc(Br)c1`, for which the z-score was determined as 0.0382.
The figure for `O=C1NC2(CCCCC2)N=C1c1ccc(Br)cc1` is 0.164; for `Cn1cc(/C=C2/SC(=O)N(c3ccccc3)C2=O)c2ccccc21` it is -0.08; for `O=S1(=O)NC(=NC2CCCCCC2)c2ccccc21` it is -0.0713.
For `CC1=NN(c2ccc(Cl)cc2)C(=O)C1C(c1cccc(O)c1)c1c(C)[nH]n(-c2ccc(Cl)cc2)c1=O` (configuration not stated), the z-score was -0.21.
As for `Cc1ccc(S(=O)(=O)/C(C#N)=C/c2c(N3CCC(C(N)=O)CC3)nc3c(C)cccn3c2=O)cc1`, the z-score was found to be 0.139.
`COc1ccc(/C=N\NS(=O)(=O)c2ccc(C)cc2)cc1COc1ccccc1[N+](=O)[O-]` had a z-score of 1.32.
The molecule `O=C(/C=C/c1ccccc1)N1CCN(CC(O)COc2ccccc2)CC1` (configuration not stated) gave a z-score of -0.361.
The figure for `COc1ccc(C(=O)Nc2ccccc2C(N)=O)cc1` is 0.00668; for `OC1CN=C2Sc3ccccc3N2C1` (configuration not stated) it is -0.0741; for `O=C(Nc1ncc(Cc2ccc(Cl)cc2Cl)s1)c1ccc([N+](=O)[O-])cc1` it is -0.384.
The figure for `O=C(COC(=O)c1cc(=O)[nH]c2ccccc12)NC(=O)NC1CCCCC1` is -0.536.
The figure for `CCCCC(CC)CNC(=O)C1CCCN(S(=O)(=O)c2cnc[nH]2)C1` (configuration not stated) is -0.124; for `Cc1nc(NC(=O)C2CC2)sc1C(=O)N1CCCCC1` it is 1.18; for `Cc1cccc(CSC2=NCCN2C(=O)c2ccco2)c1` it is -0.824.
`FC(F)(F)c1cccc(NC(=S)Nc2ccc(Cl)cc2Cl)c1` displayed a z-score of 1.29.
As for `Cc1ccc2c(C)nc(Nc3nc(CSc4nnc(C)s4)cc(=O)[nH]3)nc2c1`, the figure is -0.289; as for `O=C(Nc1ccccc1N1CCN(C(=O)c2ccccc2)CC1)c1ccc2c(c1)OCO2`, 1.55; as for `CCSc1nc2sc3c(c2c2nnc(SCC(=O)NCc4ccco4)n12)CCCC3`, -1.36.
Molecule `COc1ccc(C(C[N+](=O)[O-])c2c(-c3ccccc3)cc3ccccn23)cc1OC` (configuration not stated) yielded a z-score of 0.481.
Regarding `Cc1occc1-c1nnc(SCC(=O)NCC2CCCO2)n1C` (configuration not stated), the z-score was -0.244.
In turn, `CC(C)C(=O)NC(C)C(c1cccs1)N1CCN(c2ccccc2)CC1` (configuration not stated) gave a z-score of 0.0497.
The figure for `CC1CC1c1ccc(/C=C(\C#N)C(=O)Nc2cccc(Cl)c2Cl)o1` (configuration not stated) is -0.485; for `Cc1cc(C)c2c(n1)sc1c(=O)[nH]c(SCc3ccccc3)nc12` it is -0.591; for `O=C(Oc1ccc([N+](=O)[O-])cc1)c1cncc(Br)c1` it is -0.639.
`CCCCN(CC)S(=O)(=O)c1ccc2c(c1)CCCN2C(C)=O` yielded a z-score of -0.0517.
In the case of `O=C(Nn1cnnc1)c1cc2cc(Br)ccc2oc1=O`, the z-score was active: 4.37.
Molecule `COCCNC(=O)c1c(N)n(-c2ccccc2)c2nc3ccccc3nc12` returned a z-score of -0.695.
`CN1CCN(CC(O)COCCOc2ccc(Br)cc2)CC1` (configuration not stated) yielded a z-score of -0.138.
The figure for `CCOC(=O)C1=C(C)NC(SCc2cc(=O)[nH][nH]2)=C(C#N)C1c1cccs1` (configuration not stated) is -0.0437; for `CCOC(=O)C1CCN(C(=O)c2ccccc2NS(=O)(=O)c2cc(C)ccc2C)CC1` it is 0.196; for `CCOC(=O)CSC1=C(C#N)C(c2ccco2)C(C(=O)Nc2cccc(C(F)(F)F)c2)=C(C)N1` (configuration not stated) it is -0.526.
On to `COc1ccc(CNc2nc(S(=O)(=O)c3ccccc3)c(Cl)s2)cc1OC`, for which the z-score is -0.056.
The figure for `CCN(CC)CCN1C(=O)C(=O)/C(=C(/O)c2c(C)[nH]c(C(=O)OC)c2C)C1c1ccccc1OC` (configuration not stated) is 0.463.
The figure for `Cc1ccc(NC(=S)N2CCN(Cc3ccc4c(c3)OCO4)CC2)c(C)c1` is -0.407.
As for `CN1CCC(=NNC(=O)c2ccc(N(Cc3ccc(Cl)cc3)S(C)(=O)=O)cc2)CC1`, the figure is -0.0884; as for `COc1ccc2[nH]c(=O)c(CN(CCO)C(=O)c3ccccc3F)cc2c1`, -0.951.
Consider `Cn1c(CCNC(=O)c2ccccc2)nc2cc(NC(=O)C3CCCCC3)ccc21`, for which the z-score came to 0.756.
As for `CC(=O)C(=Nc1ccc(Cl)cc1Cl)NNc1cccc(Cl)c1`, the figure is -0.405; as for `O=C(/C=C/c1cccs1)c1cc(Cl)ccc1OC(=O)N1CCOCC1`, -0.448; as for `S=C(NCCSCc1ccc(Cl)c(Cl)c1)Nc1ccccc1`, -0.092.
`Cn1c(C2CCCN2C(=O)OC(C)(C)C)n[nH]c1=S` (configuration not stated) yielded a z-score of -0.385.
The figure for `COc1cc2[nH]c3c(=O)n(CCN4CCCCC4)cnc3c2cc1OC` is 0.755.
For the molecule `O=C(NC1CCCCC1)N(Cc1nc2ccccc2c(=O)[nH]1)C1CCCC1`, the z-score came out at 0.129.
As to `Cc1cccc(C(=O)N2CCC(Cc3ccccc3)CC2)c1[N+](=O)[O-]`, the z-score is active: 8.23.
In the case of `O=C1C(Cc2ccc(O)cc2)NC(=S)N1c1ccccc1` (configuration not stated), the z-score was -0.375.
The figure for `Cc1ccc(NC(=O)c2cnn(-c3ccccc3)c2NC(=O)c2ccco2)cc1C` is -0.171; for `CC(C)(C)C(=O)Nc1ccccc1N1CCN(C(=O)c2ccc(Cl)cc2)CC1` it is -0.414; for `COC(=O)c1ccsc1NC(=O)CN1CCN(Cc2ccc3c(c2)OCO3)CC1` it is -0.145.
`COc1ccccc1Cc1nnnn1CC(=O)O` gave a z-score of 0.0206.
The figure for `COC(=O)c1ccc(Oc2c(C(F)(F)F)oc3c(CN4CCN(C)CC4)c(O)ccc3c2=O)cc1` is -0.0871.

Source of the values: PubChem BioAssay AID488969 (Vanderbilt High Throughput Screening Facility, 2010).
